# Test results as given in PubChem BioAssay AID485281 (National Center for Advancing Translational Sciences (NCATS), 2010).
# The campaign covered roughly 350,000 compounds. About 260 (0.074%) were called active. This list was built around the results that the source calls inconclusive (neither active nor inactive); the mix of calls is not that of the screen. Calls come from the whole dose curve; as a rule, active = well fitted inhibition curve with a large enough effect; inconclusive = small, poorly fitted or top-dose-only effect; inactive = no such curve, though single readings can be large or run the other way. A potency beside an inconclusive call is a rough fit, not a confirmed value.
# Molecular target: Ferritin light chain (Equus caballus) (UniProt P02791)
# Test: qHTS Assay for Identification of Novel General Anesthetics; note: nearly all actives have a fitted effect of over 20% in size
# Conditions: apoferritin/1-aminoanthracene competitive binding, fluorescence; activity change, negative = displacement: at 77.5 µM (top of the series)
# Text: Source: NIH Chemical Genomics Center [NCGC]
# Assay Submitter: Roderic Eckenhoff, University of Pennsylvania
# Screening Center PI: Christopher P. Austin, NIH
# Probe Development: NIH Chemical Genomics Center [NCGC]
# Anesthetic development has remained a largely empirical process. There are growing concerns about the cognitive effects of known general anesthetics and acceleration of the onset of neurodegenerative disease. The compounds' toxicity and multiple specific binding targets in the mammalian brain [4] has made them less attractive as drug leads. In this assay, a GABAergic mimetic model system, apoferritin and a profluorescent 1-aminoanthracene ligand (1-AMA), was used to construct a competitive binding assay for identification of novel general anesthetics. The assay was validated for 1-AMA using other known anesthetics, such as isoflurane (CID:3763) and propofol (CID: 4943), [6].
# [1] S.L. Bianchi, T. Tran, C. Liu, S. Lin, Y. Li, J.M. Keller, R.G. Eckenhoff, and M.F. Eckenhoff, Brain and behavior changes in 12-month-old Tg2576 and nontransgenic mice exposed to anesthetics. Neurobiol Aging 29 (2008) 1002-10.
# [2] Z. Xie, Y. Dong, U. Maeda, R.D. Moir, W. Xia, D.J. Culley, G. Crosby, and R.E. Tanzi, The inhalation anesthetic isoflurane induces a vicious cycle of apoptosis and amyloid beta-protein accumulation. J Neurosci 27 (2007) 1247-54.
# [3] P. Honegger, and J.M. Matthieu, Selective toxicity of the general anesthetic propofol for GABAergic neurons in rat brain cell cultures.
# [4] M.F. Eckenhoff, K. Chan, and R.G. Eckenhoff, Multiple specific binding targets for inhaled anesthetics in the mammalian brain. J Pharmacol Exp Ther 300 (2002) 172-9.
# [5] C.A. Butts, J. Xi, G. Brannigan, A.A. Saad, S.P. Venkatachalan, R.A. Pearce, M.L. Klein, R.G. Eckenhoff, and I.J. Dmochowski, Identification of a fluorescent general anesthetic, 1-aminoanthracene. Proc Natl Acad Sci U S A 106 (2009) 6501-6.
# [6] W.A. Lea, J. Xi, A. Jadhav, L. Lu, C.P. Austin, A. Simeonov, and R.G. Eckenhoff, A high-throughput approach for identification of novel general anesthetics. PLoS One 4 (2009) e7150.
# Three uL of reagents (free 1-AMA (50% saturated solution of 1-aminoanthracene
# in PBS) in columns 3, 4 as negative control and 1-AMA/apoferritin mixture (10 uM horse-spleen apoferritin in 50% saturated 1-aminoanthracene in PBS) in columns 1, 2, 5-48) was dispensed into 1536-well Greiner black assay plates. Compounds (23 nL) were transferred via Kalypsys pintool equipped with 1,536-pin array (10 nL slotted pins, V&P Scientific, San Diego, CA). Titration of the positive control, propofol, were delivered via pin transfer from separate control plates to the 2nd column of each assay plate. The starting concentration of the control, dissolved in DMSO, was at 160 mM, followed by two-fold dilution points in duplicate, for a total of 16 concentrations. The plates were incubated for 10 min at room temperature, and then read on an EnVision HTS multilabel reader (Perkin-Elmer, Waltham, MA) (end point read, 3 min/plate) using Fura2 BFP excitation filter (380 nm, bandwidth 10 nm) and fluorescein emission filter (535 nm, bandwidth 25 nm) set. A LANCE/DELFIA dichroic mirror with a cutoff wavelength at 400 nm was used to maximize signal accuracy and strength. Vehicle-only plates, with DMSO being pin-transferred to the entire column 5-48 compound area, were inserted uniformly at the beginning and the end of each library in order to monitor for and record any shifts in the background. Activity was computed as the normalized fluorescence response relative to free 1-AMA and 1-AMA/apoferritin complex values. Concentration-effect relationships were derived by using curve fitting algorithms developed in-house (http://ncgc.nih.gov/pub/openhts/). A four parameter Hill equation was fitted to the concentration-response data by minimizing the residual error between the modeled and observed responses.
# % is set by controls: 0 for no effect and ±100 for the full control effect; potency is the fitted concentration of half-maximal effect; tags give direction and shape of the fitted curve.
# UniProt P02791, sequence (P02791 whole entry, looked up): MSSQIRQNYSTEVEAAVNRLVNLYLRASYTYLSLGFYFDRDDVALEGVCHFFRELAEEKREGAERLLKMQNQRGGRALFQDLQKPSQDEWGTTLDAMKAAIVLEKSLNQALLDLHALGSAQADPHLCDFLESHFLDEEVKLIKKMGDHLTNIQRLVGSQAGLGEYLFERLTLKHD
Compound,Potency,"activity change, negative = displacement"
CCN(c1ccc(NC(=O)COC(=O)c2ccc(C)c(S(=O)(=O)N3CCOCC3)c2)cc1)C(C)C,"inconclusive: 15.8 µM [inhibitor, partial curve, poor fit]",
CCOC(=O)CC(NC(=O)c1cccc2c1C(=O)N(Cc1cccnc1)C2)c1ccc(OC(C)C)cc1 (stereo not drawn),"inconclusive: 44.7 µM [inhibitor, single point]",
CCOC(=O)N1CCN(C(=O)c2oc(=O)c3ccccc3c2-c2ccc(C)cc2)CC1,"inconclusive: 31.6 µM [inhibitor, partial curve]",
O=C(Nc1ccc(-c2cnco2)cc1)c1ccc(F)cc1F,,inactive: -10.1%
CC1CCN(S(=O)(=O)c2cc(F)ccc2CN2C(=O)c3cccnc3C2=O)CC1,,inconclusive: -33.7% [inhibitor]
Cc1ccc(OC2=NS(=O)(=O)c3ccccc32)cc1,"inconclusive: 28.2 µM [inhibitor, single point]",
CN(C)Cc1c(C(=O)N/N=C/C=C/c2ccccc2)nnn1-c1nonc1N,"inconclusive: 35.5 µM [inhibitor, single point]",
c1ccc(-c2noc(-c3ccccc3-c3ccccc3)n2)cc1,,inactive: -18.5%
COc1ccc(-c2csc3nc(C)n(-n4cccc4)c(=O)c23)cc1,"inconclusive: 17.8 µM [inhibitor, partial curve]",
Cc1cccc(NC(=O)CCc2ccc(C)o2)c1,"inconclusive: 50.1 µM [inhibitor, single point]",
O=C(Nc1cccc([N+](=O)[O-])c1)NC1CCCCCCC1,"inconclusive: 28.2 µM [inhibitor, partial curve]",
C/C(N)=C(/C#N)C(=O)COC(=O)c1ccccc1Oc1ccccc1,"inconclusive: 35.5 µM [inhibitor, single point]",
CCOC(=O)c1ccc(NC(=S)NCCc2ccccc2F)cc1,"inconclusive: 28.2 µM [inhibitor, partial curve]",
CCN(CC)CCCNC(=O)c1cc(-c2ccc(Cl)c(Cl)c2)on1,"inconclusive: 35.5 µM [inhibitor, partial curve]",
COc1ccc(COC(=O)c2ccc(N3CCCC3=O)cc2)cc1F,"inconclusive: 15.8 µM [inhibitor, partial curve]",
Cc1ccc(-n2nc(CO)c(C(=O)NCCC(C)C)n2)cc1C,"inconclusive: 50.1 µM [inhibitor, single point]",
Cc1ccccc1/C=C1\CCCc2ccccc2C1=O,"inconclusive: 31.6 µM [inhibitor, single point]",
O=C(O)c1cc(C(=O)O)cc(-c2ccc(/C=c3/sc4nc5ccccc5n4c3=O)o2)c1,,inactive: -8.9%
O=C1Nc2ccccc2/C1=C/c1ccccc1Cl,"inconclusive: 39.8 µM [inhibitor, partial curve]",
Cc1ccc2[nH]cc(CCNS(=O)(=O)c3ccc(F)cc3)c2c1,"inconclusive: 22.4 µM [inhibitor, partial curve]",
Cc1cccc2cc(CN(Cc3ccc(F)cc3)Cc3nnnn3C3CCCC3)c(=O)[nH]c12,,inactive: -10.9%
Cc1ccc(NC(=O)CN2C(=O)c3cccnc3Sc3ccccc32)c(Br)c1,"inconclusive: 25.1 µM [inhibitor, partial curve]",

Compound,Potency,"activity change, negative = displacement"
CC1CCN(S(=O)(=O)c2cc(C(=O)N3CCN(c4cccc(Cl)c4)CC3)n(C)c2)CC1,,inactive: -5.44%
CCOC(=O)c1c(NC(=O)c2cc(-c3cccc(Cl)c3)on2)sc(C(C)=O)c1C,,inactive: 3.46%
O=C(CN1C(=O)NC2(CCCc3ccccc32)C1=O)NCc1ccc(Cl)cc1Cl (stereo not drawn),"inconclusive: 31.6 µM [inhibitor, single point]",
COc1ccc(Nc2ncnc3c2cnn3Cc2ccc(C)cc2)cc1,"inconclusive: 35.5 µM [inhibitor, partial curve]",
Cc1cc(C)cc(OCCNC(=O)CCc2ccccc2)c1,"inconclusive: 14.1 µM [inhibitor, partial curve]",
Cc1cccc(C(=O)NC2CC3CCCC(C2)N3S(=O)(=O)c2ccccc2)c1 (stereo not drawn),"inconclusive: 10 µM [inhibitor, partial curve, poor fit]",
Cc1ccc(-c2ccc(=O)n(CC(=O)NCCN(C)C)n2)cc1,"inconclusive: 28.2 µM [inhibitor, partial curve]",
c1cc(-c2nc3cc(Cc4ccc5oc(-c6ccncc6)nc5c4)ccc3o2)ccn1,,inactive: 5.31%
CC(C)CCNc1nc(N)c([N+](=O)[O-])c(N2CCCCCC2)n1,"inconclusive: 56.2 µM [inhibitor, single point]",
C1CCC(C(C[C@@H]2CCCCN2)C2CCCCC2)CC1,,inactive: 1.61% [at 29.3 µM]
COc1ccc(CN2C(=O)c3c(c(C)n(C)c3C)C2C(=O)NC2CCC(C)CC2)cc1 (stereo not drawn),"inconclusive: 31.6 µM [inhibitor, single point]",
CC12CCC(C(=O)N3CCc4ccccc43)(CC1=O)C2(C)C (stereo not drawn),"inconclusive: 25.1 µM [inhibitor, single point]",
CN(CC(=O)Nc1ccc(C#N)cc1)Cc1ccc(Cl)c(Cl)c1,,inactive: -11%
CCOC(=O)c1c(NC(=O)CSc2n[nH]c(N)n2)sc(CC)c1C,"inconclusive: 31.6 µM [inhibitor, partial curve]",
O=C(CN1CCCCC1)Nc1ccc(N2CCCCCC2)cc1,"inconclusive: 20 µM [inhibitor, partial curve]",
CC1CCC2(CC1)NC(=O)N(Cc1cccc(C(F)(F)F)c1)C2=O (stereo not drawn),"inconclusive: 25.1 µM [inhibitor, partial curve]",
Cn1ccc2c(OCC(=O)Nc3ccc(OC(F)(F)F)cc3)cccc2c1=O,"inconclusive: 50.1 µM [inhibitor, single point]",
COc1ccc2c(c1)CC/C(=C\Nc1ccc3c(c1)OCO3)C2=O,,inactive: -22.7%
CCCN(CC(=O)Nc1cc(Cl)ccc1Cl)C(=O)/C=C/c1ccco1,"inconclusive: 31.6 µM [inhibitor, partial curve]",
Cc1cccc2sc(NC(=O)CCNS(=O)(=O)c3cccs3)nc12,"inconclusive: 22.4 µM [inhibitor, partial curve]",
N#CC1=C(N)C(C#N)(C#N)C(c2cccnc2)C2CN(C(=O)OCc3ccccc3)CC=C12 (stereo not drawn),,inactive: -4.35%
